Assay results taken from PubChem BioAssay (NCATS).
“And” between values parts separate entries of the source, which are not always exact repeats. Equal entries are not always repeated. The shares of active, inactive and inconclusive entries below differ from those in the screen. A potency beside an inconclusive call is a rough fit, not a confirmed value. Some structures have more than one record in an assay (separate samples or runs), and their calls can disagree. The source made the active and inactive calls. Calls follow the shape of the dose curve; as a rule, active = well fitted curve in the direction sought with a large enough effect; inconclusive = small, poorly fitted or top-dose-only effect, or another doubt; inactive = no such curve, though single readings can be large; an effect the other way counts as inactive or inconclusive.

Assays:
[1] = Primary qHTS for inhibitors of nuclear receptor binding SET domain protein 2 (NSD2) in an isogenic RCH-ACV NSD2 p.E1099K mutant (9B) (AID 1645876); also: nearly all actives have a fitted effect of over 70% in size
[2] = Primary qHTS for inhibitors of nuclear receptor binding SET domain protein 2 (NSD2) in an RCH-ACV wild type WT cells (2C) (AID 1645877); settings: activity change, negative = cell killing: at 44.9 µM (top of the series) unless noted; also: nearly all actives have a fitted effect of over 70% in size; as to activity change, negative = cell killing: % is scaled to controls: 0 for no effect and ±100 for the full control effect
[3] = test system: CRL-7250; assay: Cytotoxic Profiling of Annotated Libraries Using Quantitative High-Throughput Screening (AID 1296008); settings: Five cell lines viability, CellTiter-Glo ATP luminescence, 48-72 h; max response: stronger effect = lower value; also: nearly all actives have a fitted effect of over 60% in size; as to max response: % is scaled to controls: 0 for no effect and ±100 for the full control effect
Summary of the method: (§1)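 Cytotoxicity was measured as CellTiter-Glo ATP luminescence, read after 10 min at room temperature. Compound treatment of the cells lasted 48 or 72 hr at 37 degrees Celsius in a qHTS format.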

[4] = test system: HaCat; assay: as above; settings: Five cell lines viability, CellTiter-Glo ATP luminescence, 48-72 h; max response: stronger effect = lower value
Summary of the method: as §1

[5] = test system: CAOV3; assay: Primary qHTS to identify gynecologic anti-cancer compounds using libraries of approved drugs and bioactive compounds (AID 1345084); settings: Gynecologic cancer cell panel viability, ATPlite luminescence, 48 h; activity change, negative = cytotoxicity: at 57.5 µM (top of the series); also: nearly all actives have a fitted effect of over 55% in size; as to activity change, negative = cytotoxicity: % is scaled to controls: 0 for no effect and ±100 for the full control effect
Summary of the method: (§2)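 In this quantitative HTS, cell killing is estimated from loss of ATP-dependent luciferase light. Cells see five compound concentrations over a 48 h exposure.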

[6] = test system: JEG-3; assay: as above; settings: Gynecologic cancer cell panel viability, ATPlite luminescence, 48 h; series mostly up to 57.5 µM
Summary of the method: as §2

[7] = P-glycoprotein substrates identified in KB-8-5-11 adenocarcinoma cell line, qHTS therapeutic library screen (AID 1346987); also: nearly all actives have a fitted effect of over 65% in size
Summary of the method: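 KB-8-5-11: colchicine-selected sub-line of KB-3-1 over-expressing P-gp; assay medium lacked colchicine. 72 h drug exposure at 37 degree C, CellTiter-Glo.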

[8] = test system: KB-3-1; assay: Cytotoxic Profiling of Annotated Libraries Using Quantitative High-Throughput Screening (AID 1296008); settings: Five cell lines viability, CellTiter-Glo ATP luminescence, 48-72 h; max response: stronger effect = lower value; also: nearly all actives have a fitted effect of over 60% in size; as to max response: % is scaled to controls: 0 for no effect and ±100 for the full control effect
Summary of the method: as §1

[9] = test system: NIH3T3; assay: as above; settings: Five cell lines viability, CellTiter-Glo ATP luminescence, 48-72 h; max response: stronger effect = lower value
Summary of the method: as §1

[10] = test system: C33A; assay: Primary qHTS to identify gynecologic anti-cancer compounds using libraries of approved drugs and bioactive compounds (AID 1345084); settings: Gynecologic cancer cell panel viability, ATPlite luminescence, 48 h; series mostly up to 57.5 µM; also: nearly all actives have a fitted effect of over 55% in size
Summary of the method: as §2

[11] = test system: Hek293T; assay: as above; settings: Gynecologic cancer cell panel viability, ATPlite luminescence, 48 h, control line for the selectivity index; activity change, negative = cytotoxicity: at 57.5 µM (top of the series) unless noted
Summary of the method: as §2

[12] = test system: OV90; assay: as above; settings: Gynecologic cancer cell panel viability, ATPlite luminescence, 48 h; series mostly up to 57.5 µM
Summary of the method: as §2

[13] = test system: SKOV3; assay: as above; settings: Gynecologic cancer cell panel viability, ATPlite luminescence, 48 h; series mostly up to 57.5 µM
Summary of the method: as §2

[14] = test system: Tov-21-G; assay: as above; settings: Gynecologic cancer cell panel viability, ATPlite luminescence, 48 h; activity change, negative = cytotoxicity: at 57.5 µM (top of the series) unless noted
Summary of the method: as §2

[15] = test system: Zika virus NS2B-NS3 protease (unlinked complex); assay: Primary screen GU Rhodamine qHTS for Zika virus inhibitors: Unlinked NS2B-NS3 protease assay (AID 1347159); also: nearly all actives have a fitted effect of over 60% in size
Summary of the method: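 Noncovalent NS2B hydrophilic domain–NS3 protease domain complex (25 nM) preincubated 15 min at room temperature with compounds (up to 114 microM) in 10 mM Tris-HCl pH 8.0, 0.01% Tween 20; 1.5 microM Rhodamine110 substrate added, fluorescence change over 15 min fitted to Hill equation.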

[16] = test system: CASKI; assay: Primary qHTS to identify gynecologic anti-cancer compounds using libraries of approved drugs and bioactive compounds (AID 1345084); settings: Gynecologic cancer cell panel viability, ATPlite luminescence, 48 h; series mostly up to 57.5 µM; also: nearly all actives have a fitted effect of over 55% in size
Summary of the method: as §2

[17] = test system: Es-2; assay: as above; settings: Gynecologic cancer cell panel viability, ATPlite luminescence, 48 h; series mostly up to 57.5 µM
Summary of the method: as §2

[18] = test system: HeLa; assay: as above; settings: Gynecologic cancer cell panel viability, ATPlite luminescence, 48 h; activity change, negative = cytotoxicity: at 57.5 µM (top of the series)
Summary of the method: as §2

[19] = test system: PA-1; assay: as above; settings: Gynecologic cancer cell panel viability, ATPlite luminescence, 48 h; series mostly up to 57.5 µM
Summary of the method: as §2

[20] = test system: Tov112D; assay: as above; settings: Gynecologic cancer cell panel viability, ATPlite luminescence, 48 h; series mostly up to 57.5 µM
Summary of the method: as §2
Potency is read from the fitted curve at half-maximal effect; tags tell the direction and shape of the fitted curve.

SMILES: CN(C)CCc1c[nH]c2ccc(CS(=O)(=O)N3CCCC3)cc12
- Potency [1]: inactive
- Potency [2]: inactive
- max response [3]: inactive: -0.155% and inactive: 1.13%
- max response [4]: inactive: -24.1%
- outcome [4]: inactive
- Potency [5]: inactive
- Potency [6]: inactive

SMILES: NC1(Cc2ccc(Cl)cc2)CCN(c2ncnc3[nH]ccc23)CC1
- Potency [7]: inconclusive: 8.33 µM [inhibitor, partial curve] and inconclusive: 20.6 µM [inhibitor, single point]
- Potency [1]: active: 9.34 µM
- Potency [3]: active: 13.2 µM and inconclusive: 18.4 µM [inhibitor, single point]
- Potency [4]: inconclusive: 11.8 µM [inhibitor, partial curve]
- max response [4]: inactive: -10.8%
- Potency [8]: inconclusive: 26.4 µM [inhibitor, partial curve, poor fit]
- Potency [9]: inconclusive: 29.6 µM [inhibitor, single point]
- Potency [10]: active: 10 µM
- Potency [11]: active: 10 µM
- Potency [6]: inconclusive: 22.4 µM [cytotoxic, partial curve, poor fit]
- Potency [12]: inconclusive: 17.8 µM [cytotoxic, partial curve, poor fit]
- Potency [13]: inconclusive: 25.1 µM [cytotoxic, partial curve, poor fit]
- Potency [14]: inconclusive: 8.91 µM [cytotoxic, partial curve, poor fit]

SMILES: Cc1nc(Nc2n[nH]c3c2CN(C(=O)NC(CN(C)C)c2ccccc2)C3(C)C)c2sccc2n1 (stereo not drawn)
- Potency [7]: inconclusive: 16.4 µM [inhibitor, partial curve]
- Potency [15]: inactive
- Potency [2]: active: 5.2 nM
- Potency [3]: inconclusive: 65.1 nM [inhibitor, full curve, poor fit]
- Potency [4]: inconclusive: 5.8 µM [inhibitor, partial curve, poor fit]
- Potency [8]: active: 1.84 µM
- Potency [9]: active: 8.2 µM
- Potency [10]: inconclusive: 7.08 µM [cytotoxic, full curve]
- Potency [5]: active: 1.41 µM
- Potency [16]: active: 3.98 µM
- Potency [17]: active: 7.94 µM
- Potency [18]: active: 10 µM
- Potency [11]: active: 7.94 µM
- Potency [6]: inconclusive: 39.8 µM [cytotoxic, single point]
- Potency [12]: active: 3.16 µM
- Potency [19]: active: 0.316 µM
- Potency [13]: inconclusive: 0.199 µM [cytotoxic, full curve, poor fit]
- Potency [14]: inconclusive: 3.55 µM [cytotoxic, partial curve, poor fit]

SMILES: O=C(Nc1ccnc(NC(=O)C2CC2)c1)c1c(Cl)cccc1Cl
- Potency [7]: active: 8.2 µM
- Potency [3]: inconclusive: 29100 nM [inhibitor, single point]
- Potency [4]: inconclusive: 18.4 µM [inhibitor, single point]
- Potency [8]: active: 20.6 µM
- Potency [9]: active: 6.51 µM
- Potency [10]: inconclusive: 39.8 µM [cytotoxic, single point]
- Potency [5]: inconclusive: 14.1 µM [cytotoxic, partial curve, poor fit]
- Potency [16]: inconclusive: 39.8 µM [cytotoxic, single point]
- Potency [17]: active: 22.4 µM
- Potency [11]: inconclusive: 20 µM [cytotoxic, single point]
- Potency [6]: inconclusive: 39.8 µM [cytotoxic, single point]
- Potency [12]: inconclusive: 17.8 µM [cytotoxic, partial curve]
- Potency [19]: active: 15.8 µM
- Potency [14]: inconclusive: 35.5 µM [cytotoxic, single point]
- Potency [20]: inconclusive: 20 µM [cytotoxic, single point]

SMILES: CCCNC(=O)NS(=O)(=O)c1ccc(Cl)cc1
- Potency [1]: inactive
- max response [3]: inactive: -0.307%
- outcome [3]: inactive
- Potency [9]: inconclusive: 29.9 µM [inhibitor, single point]
- Potency [5]: inconclusive: 22.4 µM [cytotoxic, partial curve, poor fit]

SMILES: CC[C@@]1([C@@H]2O[C@@H]([C@H]3O[C@@](O)(CO)[C@H](C)C[C@H]3C)C[C@H]2C)CC[C@H]([C@]2(C)CC[C@]3(C[C@H](O)[C@@H](C)[C@@H]([C@@H](C)[C@@H](OC)[C@H](C)C(=O)O)O3)O2)O1
- Potency [7]: active: 0.911 µM
- Potency [3]: inconclusive: 1290 nM [inhibitor, full curve, poor fit]
- Potency [4]: inconclusive: 10.2 µM [inhibitor, partial curve, poor fit]
- Potency [8]: inconclusive: 2.57 µM [inhibitor, partial curve]
- Potency [9]: inconclusive: 1.62 µM [inhibitor, full curve]

SMILES: COc1cccc(OCCCN)c1-c1cc(Nc2cnc(C#N)cn2)n[nH]1
- Potency [7]: active: 1.3 µM
- Potency [1]: inconclusive: 0.003 µM [inhibitor, full curve, poor fit]
- Potency [2]: inconclusive: 4.2 nM [inhibitor, full curve, poor fit]
- Potency [3]: inconclusive: 461 nM [inhibitor, partial curve, poor fit]
- Potency [4]: inconclusive: 0.651 µM [inhibitor, full curve, poor fit]
- Potency [8]: inconclusive: 0.13 µM [inhibitor, full curve]
- Potency [9]: active: 0.0411 µM
- Potency [10]: inconclusive: 0.1 µM
- Potency [5]: active: 14.1 µM
- Potency [17]: inconclusive: 0.1 µM
- Potency [18]: inconclusive: 50.1 µM
- Potency [11]: inconclusive: 5.62 µM
- Potency [6]: inconclusive: 0.112 µM [cytotoxic, full curve, poor fit]
- Potency [12]: inconclusive: 0.355 µM [cytotoxic, full curve, poor fit]
- Potency [19]: inconclusive: 5.62 µM [cytotoxic, partial curve, poor fit]
- Potency [13]: inconclusive: 7.94 µM
- Potency [14]: inconclusive: 39.8 µM
- Potency [20]: inconclusive: 0.199 µM [cytotoxic, full curve]

SMILES: Cc1ccc(C(=O)Nc2ccc(Oc3cc4cnn(C)c4cc3-c3cn[nH]c3)c(F)c2)c(=O)n1-c1ccc(F)cc1
- Potency [3]: inconclusive: 6.51 µM [inhibitor, full curve, poor fit] and active: 4.67 µM
- Potency [4]: active: 16.6 µM
- Potency [8]: active: 5.17 µM
- Potency [9]: active: 4.11 µM
- Potency [10]: inactive
- Potency [5]: active: 8.91 µM
- Potency [16]: inconclusive: 20 µM [cytotoxic, single point]
- Potency [11]: inconclusive: 35.5 µM [cytotoxic, single point]
- Potency [6]: inconclusive: 28.2 µM [rising, single point]
- Potency [12]: inconclusive: 31.6 µM [cytotoxic, single point]
- Potency [19]: inconclusive: 39.8 µM [cytotoxic, single point]
- Potency [13]: inconclusive: 7.94 µM [cytotoxic, partial curve, poor fit]
- Potency [14]: inconclusive: 39.8 µM [cytotoxic, single point]
- Potency [20]: inconclusive: 28.2 µM [cytotoxic, single point]

SMILES: C[C@@H](Oc1cc(-n2cnc3ccc(OC4CCN(C)CC4)cc32)sc1C(N)=O)c1ccccc1C(F)(F)F
- Potency [3]: inconclusive: 130 nM [inhibitor, full curve, poor fit]
- Potency [4]: inconclusive: 0.058 µM [inhibitor, full curve]
- Potency [8]: active: 0.0092 µM
- Potency [9]: active: 5.8 µM
- Potency [10]: inconclusive: 0.112 µM [cytotoxic, full curve, poor fit]
- Potency [5]: inconclusive: 12.6 µM [cytotoxic, partial curve, poor fit]
- Potency [16]: inconclusive: 2.51 µM [cytotoxic, partial curve, poor fit]
- Potency [17]: inconclusive: 0.251 µM [cytotoxic, full curve, poor fit]
- Potency [18]: inconclusive: 0.1 µM [cytotoxic, full curve, poor fit]
- Potency [11]: inconclusive: 0.251 µM [cytotoxic, full curve, poor fit]
- Potency [6]: inconclusive: 0.282 µM [cytotoxic, full curve, poor fit]
- Potency [12]: inconclusive: 35.5 µM [cytotoxic, single point]
- Potency [19]: active: 0.316 µM
- Potency [13]: inconclusive: 44.7 µM [cytotoxic, partial curve, poor fit]
- Potency [14]: inconclusive: 0.158 µM [cytotoxic, full curve, poor fit]
- Potency [20]: inconclusive: 0.251 µM [cytotoxic, full curve, poor fit]

SMILES: Cc1cc(Nc2ncnc3ccc(-c4ccc(CNCCS(C)(=O)=O)o4)cc23)ccc1Oc1ccn2ncnc2c1
- Potency [7]: inconclusive: 13.2 µM [inhibitor, partial curve]
- Potency [15]: inconclusive: 22.4 µM [inhibitor, partial curve]
- Potency [3]: active: 3.32 µM and active: 23.1 µM
- Potency [4]: inconclusive: 16.6 µM [inhibitor, partial curve, poor fit]
- Potency [8]: active: 11.8 µM
- max response [8]: inactive: -26.8%
- Potency [9]: inconclusive: 26.4 µM [inhibitor, single point]
